# This is one part of the list. These are noisy estimates, calculated here from bound and input reads.
# Target: T1, Pho4 (S. cerevisiae) (UniProt P07270)
# T1 sequence: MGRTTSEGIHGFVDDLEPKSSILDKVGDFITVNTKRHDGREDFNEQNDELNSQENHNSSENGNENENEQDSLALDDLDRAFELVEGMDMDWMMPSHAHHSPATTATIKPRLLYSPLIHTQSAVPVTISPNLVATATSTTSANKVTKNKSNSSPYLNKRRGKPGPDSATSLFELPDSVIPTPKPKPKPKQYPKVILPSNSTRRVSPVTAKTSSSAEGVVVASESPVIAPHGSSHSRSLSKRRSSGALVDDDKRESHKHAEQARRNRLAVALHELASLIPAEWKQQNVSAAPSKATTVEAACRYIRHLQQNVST
# Test: relative binding free energy (BET-seq); higher = weaker binding
# Settings: reference: library average
row,Sequence,relative binding free energy
1,CTCGTCACGTGTGGTG,0.14 kcal/mol
2,GTTGCCACGTGTATGT,0 kcal/mol
3,TGACGCACGTGGGTCT,-0.25 kcal/mol
4,TGGTACACGTGTGCTG,0.14 kcal/mol
5,GGAAGCACGTGAGATG,0.09 kcal/mol
6,AGAGTCACGTGGTGTC,0.09 kcal/mol
7,GATTTCACGTGAGTCG,0.49 kcal/mol
8,TATGTCACGTGGATGG,0.2 kcal/mol
9,AAATTCACGTGGTAAG,0.24 kcal/mol
10,ATGGTCACGTGGGACG,0.09 kcal/mol
11,TCTTTCACGTGTTAAA,0.3 kcal/mol
12,GTTTACACGTGTTCTG,0.14 kcal/mol
13,GTCGGCACGTGGGGAA,-0.08 kcal/mol
14,ATTGGCACGTGATTGT,-0.08 kcal/mol
15,TGTTGCACGTGCTGTA,-0.08 kcal/mol
16,GTAGTCACGTGGCAGG,0.05 kcal/mol
17,AGTTGCACGTGTGGTG,0.07 kcal/mol
18,CTTTACACGTGGGTGA,-0.04 kcal/mol
19,GGGTGCACGTGACGGA,0.16 kcal/mol
20,ATTTGCACGTGTAGTT,0.11 kcal/mol
21,AGGGACACGTGCGGTT,0 kcal/mol

row,Sequence,relative binding free energy
1,TAGCGCACGTGAGTTG,0.04 kcal/mol
2,CTTTACACGTGTGTAT,0.06 kcal/mol
3,AGGTGCACGTGGTAGA,-0.11 kcal/mol
4,GTGTACACGTGAGAGG,0.34 kcal/mol
5,TAAGGCACGTGAGTTA,0.11 kcal/mol
6,TAAGGCACGTGTGTGT,-0.12 kcal/mol
7,GCGGGCACGTGAGGGA,0.12 kcal/mol
8,GAGTTCACGTGGTATC,0.39 kcal/mol
9,TTTTTCACGTGAGTGG,0.33 kcal/mol
10,ATGTGCACGTGGTCGT,-0.18 kcal/mol
11,GCTGGCACGTGGGCTT,-0.18 kcal/mol
12,TTTGACACGTGACGGA,0.08 kcal/mol
13,TTGGGCACGTGTAAAA,0.05 kcal/mol
14,CAATTCACGTGGTTAT,0.32 kcal/mol
15,TGGGACACGTGTTGGT,0.01 kcal/mol
16,TTTCGCACGTGTTCGG,-0.07 kcal/mol
17,GGGTTCACGTGATGCA,0.34 kcal/mol
18,TTCGTCACGTGGTCTG,-0.03 kcal/mol
19,TGGATCACGTGGAGGT,0.25 kcal/mol
20,GAAAGCACGTGCGGGG,-0.08 kcal/mol
21,TTGATCACGTGATGTG,0.34 kcal/mol

row,Sequence,relative binding free energy
1,TCTGGCACGTGGTACG,-0.26 kcal/mol
2,ACATTCACGTGCGGTG,0.38 kcal/mol
3,TTGTACACGTGGATTT,0.21 kcal/mol
4,TCAGTCACGTGTTCGT,-0.02 kcal/mol
5,TGTTTCACGTGTTCAG,0.24 kcal/mol
6,GGTGGCACGTGTTAGG,0.05 kcal/mol
7,GTTGGCACGTGCTCGG,-0.21 kcal/mol
8,TATGGCACGTGGTTGT,-0.14 kcal/mol
9,TGAAGCACGTGAGCGG,0.11 kcal/mol
10,TAAGACACGTGTGGGC,0.14 kcal/mol
11,GGGGGCACGTGTGCAC,-0.09 kcal/mol
12,AGTGACACGTGGGTAA,-0.17 kcal/mol
13,ATGGACACGTGATAGT,0.1 kcal/mol
14,ATGGTCACGTGGGAAT,-0.01 kcal/mol
15,TTTTGCACGTGATGAT,0.14 kcal/mol
16,AAATGCACGTGGGGCG,-0.12 kcal/mol
17,GCTGGCACGTGGTGTG,-0.06 kcal/mol
18,AGGAGCACGTGGTTGT,-0.05 kcal/mol
19,ATGGGCACGTGCTTTA,-0.27 kcal/mol
20,CTGTTCACGTGGTCGG,0.13 kcal/mol
21,GTGTTCACGTGCGTGA,0.19 kcal/mol

# — the BET-seq Pho4 binding data (Le et al. 2018)
